Assay results reported in the supplement of paper PMC8728848.
The list shows a part of the results.

What was measured:
Test in all cases: glycan array binding signal (z-score within array); higher = stronger binding
Details in all cases: glycan notation: IUPAC condensed, linker removed
[1] = target: Gal(a1-3)Gal(b1-3)[Fuc(a1-4)]GlcNAc(b1-2)Man(a1-3)[Gal(a1-3)Gal(b1-3)[Fuc(a1-4)]GlcNAc(b1-2)Man(a1-6)]Man(b1-4)GlcNAc(b1-4)GlcNAc
Procedure, shortened: (§1)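 Columns mapping to the same glycan were averaged after glycan names were converted to IUPAC-condensed notation. The data come from 3228 arrays in the Consortium for Functional Glycomics database, limited to those with an available protein sequence. Binding is reported as a within-array Z-score averaged across arrays of one protein sequence and across linkers.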

Gal(a1-3)Gal(b1-4)Glc = target: Gal(a1-3)Gal(b1-4)Glc
Procedure, shortened: as §1

Gal(a1-3)Gal(b1-4)GlcNAc = target: Gal(a1-3)Gal(b1-4)GlcNAc
Procedure, shortened: as §1

[2] = target: Gal(a1-3)Gal(b1-4)GlcNAc(b1-2)Man
Procedure, shortened: as §1

[3] = target: Gal(a1-3)Gal(b1-4)GlcNAc(b1-2)Man(a1-3)[Gal(a1-3)Gal(b1-4)GlcNAc(b1-2)Man(a1-6)]Man(b1-4)GlcNAc(b1-4)GlcNAc
Procedure, shortened: as §1

[4] = target: Gal(a1-3)Gal(b1-4)GlcNAc(b1-3)GalNAc
Procedure, shortened: as §1

[5] = target: Gal(a1-3)Gal(b1-4)GlcNAc(b1-6)GalNAc
Procedure, shortened: as §1

[6] = target: Gal(a1-3)Gal(b1-4)[Fuc(a1-3)]GalNAc
Procedure, shortened: as §1

[7] = target: Gal(a1-3)Gal(b1-4)[Fuc(a1-3)]GlcNAc
Procedure, shortened: as §1

[8] = target: Gal(a1-3)Gal(b1-4)[Fuc(a1-3)]GlcNAc(b1-2)Man(a1-3)[Gal(a1-3)Gal(b1-4)[Fuc(a1-3)]GlcNAc(b1-2)Man(a1-6)]Man(b1-4)GlcNAc(b1-4)GlcNAc
Procedure, shortened: as §1

Gal(a1-3)GalNAc = target: Gal(a1-3)GalNAc
Procedure, shortened: as §1

Gal(a1-3)GlcNAc = target: Gal(a1-3)GlcNAc
Procedure, shortened: as §1

[9] = target: Gal(a1-3)[Gal(a1-4)]Gal(b1-4)GlcNAc
Procedure, shortened: as §1

[10] = target: Gal(a1-4)Gal(b1-3)GlcNAc(b1-2)Man(a1-3)[Gal(a1-4)Gal(b1-3)GlcNAc(b1-2)Man(a1-6)]Man(b1-4)GlcNAc(b1-4)GlcNAc
Procedure, shortened: as §1

Gal(a1-4)Gal(b1-4)Gal = target: Gal(a1-4)Gal(b1-4)Gal
Procedure, shortened: as §1

Gal(a1-4)Gal(b1-4)GalNAc = target: Gal(a1-4)Gal(b1-4)GalNAc
Procedure, shortened: as §1

Gal(a1-4)Gal(b1-4)Glc = target: Gal(a1-4)Gal(b1-4)Glc
Procedure, shortened: as §1

Gal(a1-4)Gal(b1-4)GlcNAc = target: Gal(a1-4)Gal(b1-4)GlcNAc
Procedure, shortened: as §1

[11] = target: Gal(a1-4)Gal(b1-4)GlcNAc(b1-2)Man(a1-3)[Gal(a1-4)Gal(b1-4)GlcNAc(b1-2)Man(a1-6)]Man(b1-4)GlcNAc(b1-4)GlcNAc
Procedure, shortened: as §1

[12] = target: Gal(a1-4)Gal(b1-4)GlcNAc(b1-3)Gal(b1-4)Glc
Procedure, shortened: as §1

Gal(a1-4)GlcNAc = target: Gal(a1-4)GlcNAc
Procedure, shortened: as §1

Gal(a1-6)Glc = target: Gal(a1-6)Glc
Procedure, shortened: as §1

Gal(b1-2)Gal = target: Gal(b1-2)Gal
Procedure, shortened: as §1

Gal(b1-3)Gal = target: Gal(b1-3)Gal
Procedure, shortened: as §1

Gal(b1-3)Gal(b1-4)GlcNAc = target: Gal(b1-3)Gal(b1-4)GlcNAc
Procedure, shortened: as §1

Gal(b1-3)GalNAc = target: Gal(b1-3)GalNAc
Procedure, shortened: as §1

[13] = target: Gal(b1-3)GalNAc(a1-3)[Fuc(a1-2)]Gal(b1-4)Glc
Procedure, shortened: as §1

[14] = target: Gal(b1-3)GalNAc(a1-3)[Fuc(a1-2)]Gal(b1-4)GlcNAc
Procedure, shortened: as §1

Gal(b1-3)GalNAc(b1-3)Gal = target: Gal(b1-3)GalNAc(b1-3)Gal
Procedure, shortened: as §1

[15] = target: Gal(b1-3)GalNAc(b1-3)Gal(a1-4)Gal(b1-4)Glc
Procedure, shortened: as §1

[16] = target: Gal(b1-3)GalNAc(b1-3)Gal(b1-4)Glc
Procedure, shortened: as §1

[17] = target: Gal(b1-3)GalNAc(b1-3)Gal(b1-4)GlcNAc
Procedure, shortened: as §1

[18] = target: Gal(b1-3)GalNAc(b1-4)Gal(b1-4)Glc
Procedure, shortened: as §1

[19] = target: Gal(b1-3)GalNAc(b1-4)[Neu5Ac(a2-3)]Gal(b1-4)Glc
Procedure, shortened: as §1

Gal(b1-3)GlcNAc = target: Gal(b1-3)GlcNAc
Procedure, shortened: as §1

[20] = target: Gal(b1-3)GlcNAc(a1-3)Gal(b1-4)GlcNAc
Procedure, shortened: as §1

[21] = target: Gal(b1-3)GlcNAc(a1-6)Gal(b1-4)GlcNAc
Procedure, shortened: as §1

Gal(b1-3)GlcNAc(b1-2)Man = target: Gal(b1-3)GlcNAc(b1-2)Man
Procedure, shortened: as §1

B1: Epa12 (Candida glabrata) (protein)
chain: MGSSHHHHHHSSGLVPRGSHMLEPDNSLQIFDSFLSNPSKYPLGCSPKITNPKKGLSMELYSYPYRKKGSHPCWDPAYLDPNFPRVGYKKNKLIARVDGVSGDINFNFHPKRQCTPIADYLPPNFNYNEPITTTNFTMLLYGYFKPKVTGLHTFDISADDLLFMNFGAGNAFDCCRRDSTADTFGNYVAWAIWGRRIVRNKLTVRLDKGIYYPLRLFFNNRDYYGQMRLTFKTEHGSERITDFSDYFFSVDDTSEGCPGLITYESECADVKSSTVLETDYITIQAEKE
- glycan array binding signal (z-score) [1]: 0.353
- glycan array binding signal (z-score) (Gal(a1-3)Gal(b1-4)Glc): 1.87
- glycan array binding signal (z-score) (Gal(a1-3)Gal(b1-4)GlcNAc): 2.74
- glycan array binding signal (z-score) [2]: 1.54
- glycan array binding signal (z-score) [3]: 2.04
- glycan array binding signal (z-score) [4]: 3.19
- glycan array binding signal (z-score) [5]: 1.91
- glycan array binding signal (z-score) [6]: -0.246
- glycan array binding signal (z-score) [7]: 0.985
- glycan array binding signal (z-score) [8]: -0.179
- glycan array binding signal (z-score) (Gal(a1-3)GalNAc): 0.912
- glycan array binding signal (z-score) (Gal(a1-3)GlcNAc): -0.252
- glycan array binding signal (z-score) [9]: 1.17
- glycan array binding signal (z-score) [10]: 1.68
- glycan array binding signal (z-score) (Gal(a1-4)Gal(b1-4)Gal): -0.269
- glycan array binding signal (z-score) (Gal(a1-4)Gal(b1-4)GalNAc): -0.223
- glycan array binding signal (z-score) (Gal(a1-4)Gal(b1-4)Glc): 2.06
- glycan array binding signal (z-score) (Gal(a1-4)Gal(b1-4)GlcNAc): 3.53
- glycan array binding signal (z-score) [11]: 0.51
- glycan array binding signal (z-score) [12]: 1.9
- glycan array binding signal (z-score) (Gal(a1-4)GlcNAc): 5.7
- glycan array binding signal (z-score) (Gal(a1-6)Glc): 2.02
- glycan array binding signal (z-score) (Gal(b1-2)Gal): 0.125
- glycan array binding signal (z-score) (Gal(b1-3)Gal): 0.351
- glycan array binding signal (z-score) (Gal(b1-3)Gal(b1-4)GlcNAc): 3.49
- glycan array binding signal (z-score) (Gal(b1-3)GalNAc): 0.135
- glycan array binding signal (z-score) [13]: -0.001
- glycan array binding signal (z-score) [14]: -0.255
- glycan array binding signal (z-score) (Gal(b1-3)GalNAc(b1-3)Gal): 0.01
- glycan array binding signal (z-score) [15]: 0.144
- glycan array binding signal (z-score) [16]: 1.05
- glycan array binding signal (z-score) [17]: -0.297
- glycan array binding signal (z-score) [18]: 0.12
- glycan array binding signal (z-score) [19]: -0.313
- glycan array binding signal (z-score) (Gal(b1-3)GlcNAc): 0.617
- glycan array binding signal (z-score) [20]: -0.242
- glycan array binding signal (z-score) [21]: 1.11
- glycan array binding signal (z-score) (Gal(b1-3)GlcNAc(b1-2)Man): 1.01
